Data from the supplement of paper PMC8728848.
The other results are listed elsewhere or left out.

Legend:
Assay in all cases: glycan array binding signal (z-score within array); higher = stronger binding
Conditions in all cases: glycan notation: IUPAC condensed, linker removed
Fuc(a1-2)Gal = biological target: Fuc(a1-2)Gal
In short: (§1)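 Negative Z-scores can be read as non-binding. The Z-score is calculated within each array and then averaged across arrays of one protein sequence at different concentrations or buffers and across linkers. Arrays, 3228 in all, were curated from the Consortium for Functional Glycomics database and kept only where the protein sequence was available.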

Fuc(a1-2)Gal(b1-3)GalNAc = biological target: Fuc(a1-2)Gal(b1-3)GalNAc
In short: as §1

[1] = biological target: Fuc(a1-2)Gal(b1-3)GalNAc(a1-3)[Fuc(a1-2)]Gal(b1-4)Glc
In short: as §1

[2] = biological target: Fuc(a1-2)Gal(b1-3)GalNAc(a1-3)[Fuc(a1-2)]Gal(b1-4)GlcNAc
In short: as §1

[3] = biological target: Fuc(a1-2)Gal(b1-3)GalNAc(b1-3)Gal
In short: as §1

[4] = biological target: Fuc(a1-2)Gal(b1-3)GalNAc(b1-3)Gal(a1-4)Gal(b1-4)Glc
In short: as §1

[5] = biological target: Fuc(a1-2)Gal(b1-3)GalNAc(b1-4)[Neu5Ac(a2-3)]Gal(b1-4)Glc
In short: as §1

Fuc(a1-2)Gal(b1-3)GlcNAc = biological target: Fuc(a1-2)Gal(b1-3)GlcNAc
In short: as §1

[6] = biological target: Fuc(a1-2)Gal(b1-3)GlcNAc(b1-2)Man(a1-3)[Fuc(a1-2)Gal(b1-3)GlcNAc(b1-2)Man(a1-6)]Man(b1-4)GlcNAc(b1-4)GlcNAc
In short: as §1

[7] = biological target: Fuc(a1-2)Gal(b1-3)GlcNAc(b1-2)Man(a1-3)[Fuc(a1-2)Gal(b1-3)GlcNAc(b1-2)Man(a1-6)]Man(b1-4)GlcNAc(b1-4)[Fuc(a1-6)]GlcNAc
In short: as §1

[8] = biological target: Fuc(a1-2)Gal(b1-3)GlcNAc(b1-3)Gal(b1-4)Glc
In short: as §1

[9] = biological target: Fuc(a1-2)Gal(b1-3)GlcNAc(b1-3)GalNAc
In short: as §1

[10] = biological target: Fuc(a1-2)Gal(b1-3)GlcNAc(b1-3)[Fuc(a1-2)Gal(b1-3)GlcNAc(b1-6)]GalNAc
In short: as §1

[11] = biological target: Fuc(a1-2)Gal(b1-3)GlcNAc(b1-3)[Gal(b1-4)GlcNAc(b1-6)]Gal(b1-4)Glc
In short: as §1

[12] = biological target: Fuc(a1-2)Gal(b1-3)GlcNAc(b1-3)[Neu5Ac(a2-6)Gal(b1-4)GlcNAc(b1-6)]Gal(b1-4)Glc
In short: as §1

[13] = biological target: Fuc(a1-2)Gal(b1-3)GlcNAc6S
In short: as §1

[14] = biological target: Fuc(a1-2)Gal(b1-3)[Fuc(a1-4)]GlcNAc
In short: as §1

[15] = biological target: Fuc(a1-2)Gal(b1-3)[Fuc(a1-4)]GlcNAc(b1-2)Man(a1-3)[Fuc(a1-2)Gal(b1-3)[Fuc(a1-4)]GlcNAc(b1-2)Man(a1-3)]Man(b1-4)GlcNAc(b1-4)GlcNAc
In short: as §1

[16] = biological target: Fuc(a1-2)Gal(b1-3)[Fuc(a1-4)]GlcNAc(b1-2)Man(a1-3)[Fuc(a1-2)Gal(b1-3)[Fuc(a1-4)]GlcNAc(b1-2)Man(a1-6)]Man(b1-4)GlcNAc(b1-4)[Fuc(a1-6)]GlcNAc(b1-4)[Fuc(a1-6)]GlcNAc
In short: as §1

[17] = biological target: Fuc(a1-2)Gal(b1-3)[Fuc(a1-4)]GlcNAc(b1-3)[Fuc(a1-3)[Gal(b1-4)]GlcNAc(b1-6)]Gal(b1-4)Glc
In short: as §1

[18] = biological target: Fuc(a1-2)Gal(b1-3)[Fuc(a1-4)]GlcNAc(b1-3)[Gal(b1-4)GlcNAc(b1-6)]Gal(b1-4)Glc
In short: as §1

Fuc(a1-2)Gal(b1-4)Glc = biological target: Fuc(a1-2)Gal(b1-4)Glc
In short: as §1

Fuc(a1-2)Gal(b1-4)Glc6S = biological target: Fuc(a1-2)Gal(b1-4)Glc6S
In short: as §1

Fuc(a1-2)Gal(b1-4)GlcNAc = biological target: Fuc(a1-2)Gal(b1-4)GlcNAc
In short: as §1

[19] = biological target: Fuc(a1-2)Gal(b1-4)GlcNAc(b1-2)Man
In short: as §1

[20] = biological target: Fuc(a1-2)Gal(b1-4)GlcNAc(b1-2)Man(a1-3)[Fuc(a1-2)Gal(b1-4)GlcNAc(b1-2)Man(a1-6)]Man(b1-4)GlcNAc(b1-4)GlcNAc
In short: as §1

[21] = biological target: Fuc(a1-2)Gal(b1-4)GlcNAc(b1-2)Man(a1-3)[Fuc(a1-2)Gal(b1-4)GlcNAc(b1-2)Man(a1-6)]Man(b1-4)GlcNAc(b1-4)[Fuc(a1-6)]GlcNAc
In short: as §1

[22] = biological target: Fuc(a1-2)Gal(b1-4)GlcNAc(b1-2)[Fuc(a1-2)Gal(b1-4)GlcNAc(b1-4)]Man(a1-3)[Fuc(a1-2)Gal(b1-4)GlcNAc(b1-2)Man(a1-6)]Man(b1-4)GlcNAc(b1-4)GlcNAc
In short: as §1

[23] = biological target: Fuc(a1-2)Gal(b1-4)GlcNAc(b1-3)Gal(b1-4)GlcNAc
In short: as §1

[24] = biological target: Fuc(a1-2)Gal(b1-4)GlcNAc(b1-3)Gal(b1-4)GlcNAc(b1-2)Man(a1-3)[Fuc(a1-2)Gal(b1-4)GlcNAc(b1-3)Gal(b1-4)GlcNAc(b1-2)Man(a1-6)]Man(b1-4)GlcNAc(b1-4)GlcNAc
In short: as §1

B1: SP16664D-bth-476-27-476 (Bacteroides thetaiotaomicron) (protein)
chain: DDLEVGKNIDESAYSGIYENNAYLRDGKSNLVSKVVELHGETYATTVKMGLSKTPNTATSAKVKIDAAYLETYNKAHNTDFALYPQDLVTFANEGILTVNANTKSAEVEMTIRAGEGLQEDKTYAIPVAISDQSSDITIKDEDAKHCIYLVKDMRNAGDAYKGEGVMQGYLFFEVNDVNPLNTLSFQLENGKLLWDVVVLFAANINYDAEAGRPRVQCNPNVQYLLDNNETLLQPLRRRGVKVLLGLLGNHDITGLAQLSEQGAKDFAREVAQYCKAYNLDGVNYDDEYSNSPDLSNPSLTNPSTAAAARLCYETKQAMPDKLVTVFDWGQMYGVATVDGVDAKEWIDIVVANYGSAAYPIGQMTKKQCSGISMEFNLGGGGSLSASKAQSMIDGGYGWFMGFAPSPAKYGSVFSRLQGGGEVLYGSNVAAPTIFYKKNDPTPYKYPDDL
- glycan array binding signal (z-score) (Fuc(a1-2)Gal): -0.249
- glycan array binding signal (z-score) (Fuc(a1-2)Gal(b1-3)GalNAc): -0.161
- glycan array binding signal (z-score) [1]: -0.136
- glycan array binding signal (z-score) [2]: -0.198
- glycan array binding signal (z-score) [3]: 0.123
- glycan array binding signal (z-score) [4]: -0.163
- glycan array binding signal (z-score) [5]: -0.266
- glycan array binding signal (z-score) (Fuc(a1-2)Gal(b1-3)GlcNAc): -0.112
- glycan array binding signal (z-score) [6]: 0.254
- glycan array binding signal (z-score) [7]: -0.211
- glycan array binding signal (z-score) [8]: -0.154
- glycan array binding signal (z-score) [9]: 0.031
- glycan array binding signal (z-score) [10]: -0.301
- glycan array binding signal (z-score) [11]: -0.152
- glycan array binding signal (z-score) [12]: -0.164
- glycan array binding signal (z-score) [13]: 0.027
- glycan array binding signal (z-score) [14]: -0.043
- glycan array binding signal (z-score) [15]: -0.085
- glycan array binding signal (z-score) [16]: -0.246
- glycan array binding signal (z-score) [17]: -0.24
- glycan array binding signal (z-score) [18]: -0.129
- glycan array binding signal (z-score) (Fuc(a1-2)Gal(b1-4)Glc): -0.193
- glycan array binding signal (z-score) (Fuc(a1-2)Gal(b1-4)Glc6S): 0.006
- glycan array binding signal (z-score) (Fuc(a1-2)Gal(b1-4)GlcNAc): -0.251
- glycan array binding signal (z-score) [19]: -0.112
- glycan array binding signal (z-score) [20]: -0.079
- glycan array binding signal (z-score) [21]: 0.161
- glycan array binding signal (z-score) [22]: 0.131
- glycan array binding signal (z-score) [23]: -0.168
- glycan array binding signal (z-score) [24]: 0.261
